In patent US20230371550A1 (priority 2017, published 2023) one finds Average body temperature and Incidence of diarrhea data, which are given here for one substance.

Where two headings read alike, the source gives them in different places.

The conditions of experiment [1]: in vivo. How it is done:
(§1) In a field study in a commercial piglet farm with evident problems with enterohemorrhagic E. coli infections a number of 360 piglets was divided into 6 groups after weaning. All animals received a commercial standard diet for weaning piglets (Table 2). The “zero control group” received this feed without addition of any therapeutics or additives. For the “antibiotic group” (positive control group) Neomycin was added to the feed in a therapeutic dosage of 10 mg Neomycin sulfate/kg body mass/day “on-top”. The four test groups received the weaning diet with an “on-top” addition of various concentrations of the test substance. The test substance was a quorum sensing inhibitor of the invention, comprising a product composed of wood from spruce and pine tree.
In the test an effect of the feed additive of the invention was even evaluated in regard of the body temperature of the animals.

In experiment [2] the test system is enterohemorrhagic E. coli infections. As to conditions: 10 days. As for the experimental part: In a field study in a commercial piglet farm with evident problems with enterohemorrhagic E. coli infections a number of 360 piglets was divided into 6 groups after weaning. All animals received a commercial standard diet for weaning piglets (see Example 1, Table 2). The zero control group received this feed without addition of any therapeutics or additives. For the Neomycin control group Neomycin was added to the feed in a therapeutic dosage of 10 mg Neomycin sulfate/kg body mass/day. The four test groups received the weaning diet with addition of the test substance in various concentrations. In this example, the test substance was a mixture of wood from spruce and pine tree in combination with an oligomeric procyanidin with more than 8 catechin units in an amount of 0.3 wt %. Incidence of diarrhea was reported for all groups during the test period of 10 days.

The test system is the same in experiment [3]. Particulars: 10 days. As for the experimental part:
as §1
Incidence of diarrhea was reported for all groups during the test period of 10 days.
This is another data set of the same source.

Turning to Neomycin, the Average body temperature in experiment [1] turned out to be 39.6 °C. Further, the Incidence of diarrhea in experiment [2] amounted to 60%; in experiment [3], 56.7%.
